Data taken from ChEMBL document CHEMBL4888484, “Replenishing the malaria drug discovery pipeline: Screening and hit evaluation of the MMV Hit Generation Library 1 (HGL1) against asexual blood stage Plasmodium falciparum ,using a nano luciferase reporter read-out” (2022).
The campaign covered roughly 150,000 compounds. About 540 (0.36%) showed an effect of 50% or more. Some of the results follow.

system: Plasmodium falciparum; test: Primary screen in NF54 nanoGlo assay, in single point, at 2uM, 72h; a lower Z score goes with more inhibition; type: functional, Erythrocyte; conditions: timepoint 72 hour

SMILES	% Inhibition	Z score
Cc1nnsc1C(=O)NCc1ccc(-c2ccco2)o1	5%	-0.65
COc1cc(F)ccc1-c1c(-c2ccccc2)ncn1CC1CCOCC1	-3%	0.59
O=C(NC(CC1CCCc2ccccc21)C(=O)O)c1ccncc1 (stereo not given)	-13%	1.08
CCNc1nc(C(=O)N2CCC(F)(F)[C@@H](C)C2)cs1	-6%	0.78
COC(=O)[C@@H]1C[C@@H](O)CN1CCN1C(=O)c2ccccc2C1=O	-10%	1.46
CN1C(=O)CN(C(=O)Cn2cnc3ccccc3c2=O)c2ccccc21	-8%	0.95
Cc1n[nH]cc1CNC(=O)CCCc1nnc(C(=O)Nc2cccc(F)c2)s1	-5%	0.67
Cc1csc(CCNC(=O)N(C2CC2)[C@@H](C)C2CC2)n1	-11%	1.45
COc1cccc(CNc2ncnc3c(-c4ccccc4)noc23)c1	-10%	1.35
O=C(N[C@H]1CCS(=O)(=O)C1)c1c(-c2ccccc2)c(-c2ccccc2)n[nH]c1=O	-8%	1.35
Cc1nn(C)c(C)c1CCN(C)C(=O)NCC(C)C	-11%	1.08
O=C(c1ccc2ccccc2n1)N1CCC[C@H]1c1ccc2c(c1)OCCO2	-4%	0.85
O=C(Nc1cc(-c2ccccc2F)nn1-c1ccccc1)c1ccc(Cl)cc1	-4%	0.59
CCn1c(CN2CCc3cncnc3C2)nc2cc(F)ccc21	13%	-1.39
Cc1nc(O)cc(CN2CCN(c3ccccc3Cl)CC2)n1	-12%	2.06
O=C(C[C@@H]1NC(=O)NC1=O)NCCc1nc2ccccc2o1	6%	-1.09
CCNc1cc(N2CCN(C(=O)c3cccc(Oc4ccc(C)nn4)c3)CC2)nc(C)n1	-25%	2.21
Cc1cc(CNC(=O)C2(Nc3nccs3)CCCCC2)ncn1	0%	-0.02
CCn1cc(CNC(=O)NC[C@H](O)c2ccc(OC)c(OC)c2)cn1	-12%	1.13
Cc1nc(CNC(=O)C[C@H](O)c2cc(Cl)cc(Cl)c2)oc1C	-6%	0.75
O=C(N[C@H]1C[C@@H](c2cc(=O)[nH]c(N3CCCC3)n2)C1)c1cn[nH]c1	-8%	0.92
Cc1noc(-c2nn(C)c3c2CN(S(=O)(=O)c2cccc(Cl)c2)CC3)n1	-12%	1.35

SMILES	% Inhibition	Z score
O=C(NCc1cc(F)cc(F)c1)c1ccc(CN2CCCCC2=O)cc1	-5%	0.8
COc1ccc(C)cc1S(=O)(=O)N1CCN(C2CCOCC2)C[C@H]1C	7%	-0.94
COc1cccc(N(CC(=O)Nc2cccc(F)c2)CC(=O)Nc2cccc(F)c2)c1	-14%	1.64
Fc1ccc(F)c(CN2CCN(Cc3cnccn3)CC2)c1	-10%	1.26
Cc1cc(-c2c(-c3ccccc3)ncn2Cc2cc3ccccc3[nH]2)[nH]n1	-3%	0.33
CN(CCc1ncc(Br)cn1)C(=O)CCc1ccco1	-6%	0.66
Cc1cc(C(=O)N2CCC(NC(=O)C3CCC3)CC2)c(C)n1C1CC1	-5%	0.49
CCOc1ncccc1NC(=O)CCCn1cncn1	-2%	0.45
COc1ccc(NC(=O)COc2c(O)ccnc2C)cc1	1%	-0.07
Cc1ccc(-n2nc(-c3ccccc3F)cc2-c2ccccc2F)cc1Cl	34%	-3.88
CS(=O)(=O)c1ccc(-c2cncc3ccccc23)cc1	-13%	2.53
Cc1cnc(C2CC2)n1CC1CCN(C(=O)c2ccc3cc[nH]c3c2)CC1	12%	-1.64
COCCS(=O)(=O)N[C@@H](Cc1ccccc1)C1CC1	-9%	1.16
C[C@@H](Cc1ccsc1)N1CCC(C(=O)Nc2ccccc2O)CC1	32%	-3.67
Cn1cncc1CNCCOc1ccc2c(c1)OCO2	-10%	1.35
Cn1cc(-c2nc3cc(C(=O)O)ccc3[nH]2)c(-c2ccc3c(c2)OCCO3)n1	-6%	0.74
COC(=O)[C@@H](O)C(C)(C)NCc1ccc(Cl)c(F)c1	-10%	1.49
O=C(O)C1(C(=O)NCC2CCN(CC3CC3)CC2)CCCCCC1	-5%	0.65
c1csc(Cc2n[nH]c3c2CN(C2CCC2)CC3)c1	-3%	0.44
CCN(C(C)=O)c1nc(COc2ccccc2C(N)=O)cs1	-17%	1.56
Cc1ccc(NC(=O)N2C[C@@H]3C[C@H](NS(=O)(=O)c4ccccc4)[C@H]2C3)c(C)c1	26%	-3
CC(C)NC(=O)N[C@@H]1CC[C@H]2CCOc3ccccc3C(=O)N3CCN(C4CCOCC4)C[C@H]3C(=O)NC[C@H]1O2	-1%	0.18

SMILES	% Inhibition	Z score
Cn1c(C(=O)N2C[C@H](C3CC3)[C@@H](N)C2)cc2cc(F)ccc21	-4%	0.53
CC(C)=CCC[C@H](C)N1CCC(=O)N(Cc2cc3c(cc2Cl)OCO3)CC1	-10%	1.81
NC[C@H]1CN(C(=O)c2ccc3c(c2O)CCCC3)CCO1	-3%	0.61
COc1ccc(Cn2c(C)c(C)c(S(=O)(=O)c3ccccc3)c2N)cc1	-9%	1.16
C[C@@H](Cc1ccc(Br)cc1)C(=O)NCc1ncnn1C	25%	-2.82
O=C(CCc1ccccc1)Nc1ccc2c(c1)OCCO2	-3%	0.42
CC1CCC(OC(=O)c2cnn(C)c2)C1 (stereo not given)	0%	0.04
COc1cc(C)ccc1C(=O)N1CCC([C@H](C)N2CCN(C)CC2)CC1	-8%	1.54
CCn1cc(C(=O)NC(c2ccccc2C)c2ccccc2C)nn1	0%	-0.01
Cc1nnc(O)nc1NCc1ccccc1Cl	-10%	1.42
COCC1(c2noc(C[C@H]3CNCCS3(=O)=O)n2)CCCCC1	-3%	0.6
CCc1nsc(N2C[C@@H]3OC(=O)N(C4CCN(C(C)C)CC4)[C@@H]3C2)n1	-2%	0.44
CCC(C)N[C@H]1CS(=O)(=O)C[C@@H]1S(=O)(=O)c1ccccc1 (stereo not given in full)	13%	-1.48
O=S(=O)(CC1CCCCC1)NCc1ccc2c(c1)OCO2	7%	-0.92
COCc1noc(C[C@H]2CCOC3(CCN(C(=O)C(C)C)CC3)C2)n1	5%	-0.61
COc1ccc(Cc2nc(-c3ccc4c(c3)OCCO4)cs2)cc1OC	1%	-0.14
CCc1n[nH]c2c1CN(CC(=O)N1CCc3ccccc31)CC2	-5%	0.92
COCc1ccc(C(=O)N[C@@H]2COCC[C@@H]2OCCN(C)C)s1	-7%	1.2
CC(C)(C)n1cc(C(=O)N2CCC3(CC2)NC(=O)NC3=O)cn1	-3%	0.41
COCCNC(=O)NC(=O)COC(=O)C1CCC1	-11%	1.97
CN(C)C(=O)CC1(CC(=O)Nc2nccs2)CCCCC1	1%	-0.26
CCC(=O)N[C@@H]1c2ccccc2C2(CCN(Cc3ccc(OC)c(O)c3)CC2)[C@H]1OC	-11%	1.39

SMILES	% Inhibition	Z score
CC(Cn1ccnc1)NC(=O)C1CC=CCC1 (stereo not given)	-3%	0.4
Cc1nnc([C@H](C)NC(=O)c2cc3c(s2)CCCC3)o1	-15%	1.89
COc1cc(-c2cccc(C(=O)N[C@H]3CCOC3)c2)cc(OC)c1OC	-24%	2.14
Cc1n[nH]c(=O)c(C(=O)Nc2cc(C3CCCCC3)[nH]n2)c1C	-7%	0.99
CCc1ncc(NC(=O)N2CC[C@H](OCC(C)C)C2)cn1	-1%	0.13
N#Cc1c(NC(=O)CC2(C(=O)O)CCCC2)sc2c1CCC2	-9%	1.85
CCOC(=O)c1c(S(=O)(=O)NCC(=O)N2CCN(c3cccc(C)c3C)CC2)c(C)n(CC)c1C	-7%	1.08
Cc1ccc(NC(=O)NC[C@@]2(C)CCCCO2)c(N(C)C)n1	-3%	0.53
Cc1ccc(CNS(=O)(=O)c2cc3c(s2)CCN(C(=O)C2CCC2)C3)cc1	8%	-1.45
Cc1ccc(C#N)c(NCc2nnc3n2CCCCC3)n1	3%	-0.36
COc1ccc(C(=O)N[C@@H]2C[C@@H](CO)N(C)C2)c(OC)c1	8%	-1.33
Cc1ncc(S(C)(=O)=O)c(NCCn2nc(C)nc2C)n1	-17%	1.59
Nc1nc2c(c(=O)n1CCCn1ccnc1)CCCC2	-3%	0.46
O=C1C[C@@H]2CCN(C(=O)COc3ccccc3)C[C@@H]2CCOc2ccccc2N1	-2%	0.22
CN(Cc1nncn1C)c1nc(C2CCCCC2)ns1	30%	-3.36
C[C@H]1CN(C(=O)c2cc(C(F)(F)F)n[nH]2)C[C@]1(O)C1CCC1	4%	-0.67
Cc1cnccc1-c1cccc(-c2ccn(CCN(C)C)n2)c1	-5%	1.04
Cc1nn(-c2ccc(F)cc2)c2c1c(=O)c(C(=O)NC1CCCCCC1)cn2C	-4%	0.59
COc1ccc(C2(CC(=O)N3CCCC(C(C)=O)C3)CC(=O)N(C3CC3)C2=O)cc1 (stereo not given)	5%	-0.69
